Among all 150,000 compounds or so, about 540 (0.36%) showed an effect of 50% or more. This is one part of the list.
Test system: Plasmodium falciparum
Experiment: Primary screen in NF54 nanoGlo assay, in single point, at 2uM, 72h; a lower Z score goes with more inhibition
Format: functional, Erythrocyte
Conditions: timepoint 72 hour

| Structure (SMILES) | % Inhibition [%] | Z score |
| --- | --- | --- |
| CC1CCN(C(=O)c2ccc3c(c2)NC(=O)[C@@H]2CCCCN32)CC1 | -13 | 2.44 |
| O=C(Cc1ccc(F)cc1)N[C@H]1CC(=O)N(c2ccc3c(c2)OCCO3)C1 | -8 | 1.55 |
| COc1ccc(C(=O)N(CC(=O)Nc2nc(-c3ccc(Cl)cc3)cn2-c2ccc(C)cc2)Cc2ccccc2)cc1 | 5 | -0.62 |
| O=C(c1cccs1)N1CCN(c2ccc(N3CCCC3)nn2)CC1 | -13 | 2.54 |
| COC1(CNC(=O)Nc2nc(C)c(Cc3ccc(C)cc3)s2)CCOCC1 | -18 | 2.36 |
| Cc1cc(C)c(NC(=O)CCC(=O)NCc2csc(N)n2)c(C)c1 | -12 | 1.49 |
| COc1ccccc1-n1nccc1CNC[C@H]1CCC[C@H]1C(=O)O | 1 | -0.21 |
| CC(C)C1CCCCN1C(=O)[C@H]1CCC(=O)N1 (some centres undefined) | -6 | 1.12 |
| CCCc1nc(-c2c(C)cc(C)nc2NC(=O)c2ccc(F)cc2F)no1 | -16 | 2.16 |
| COc1ccc2[nH]c3c(c2c1)CCN(C)C31CCN(C(=O)c2ccccc2F)CC1 | 6 | -1.24 |
| CC[C@H](NCc1cc(O)c2cccc(F)c2n1)c1cccnc1 | -3 | 0.51 |
| CCNC(=O)Nc1ccc2c(c1)CN(S(=O)(=O)c1cccc(OC)c1)CCO2 | -2 | 0.45 |
| CCc1cc(CNC(=O)N[C@@H](C)CCc2cccn2C)[nH]n1 | -7 | 0.85 |
| Nc1ccn2ncc(C(=O)N[C@@]34COC[C@@H]3C4)c2c1 | 25 | -3.83 |
| C[C@@H]1CN(c2cccc(C(=O)O)n2)CC[C@]1(C)O | -3 | 0.6 |
| CO[C@H]1CCN(c2nnc(-c3n[nH]c4c3CCCC4)n2CC(C)C)C1 | 2 | -0.32 |
| Cc1cc(C)n([C@@H](CNS(=O)(=O)C2CC2)c2ccsc2)n1 | 19 | -2.58 |
| Cc1cccc(C2CC(N[C@@H](C)CN3CCN(C)CC3)C2)c1 (some centres undefined) | -6 | 0.97 |
| COc1ccc(-n2cc(-c3ccnc(N4CCN(C)C(=O)C4)n3)cn2)cc1 | -4 | 0.83 |
| CN1CCC2(CCN(C3CC(OCc4ccccc4)C3)CC2)C1=O (centres undefined) | -10 | 1.51 |
| CN(C)CC1(O)CCC2(CCN(C(=O)c3ccc(F)cc3)CC2)CC1 | -12 | 1.79 |

| Structure (SMILES) | % Inhibition [%] | Z score |
| --- | --- | --- |
| O=C(CCc1ccccc1Cl)N[C@H]1CCCCNC1=O | -8 | 0.68 |
| COc1ccccc1Nc1c(C(=O)N2CCC(C)CC2)cnc2nc(C)ccc12 | -6 | 0.88 |
| COCCN(CCOC)c1nc(S(=O)(=O)c2ccc(C)cc2)c(Cl)s1 | -14 | 1.78 |
| CCCC1CCC2(C)c3[nH]c4ccccc4c3CCCN2C1 (centres undefined) | 3 | -0.53 |
| CC(=O)Nc1[nH]nc(C2CCCC2)c1-c1ccc2c(c1)OCO2 | -7 | 0.95 |
| CS(=O)(=O)Cc1noc(-c2ccc(N3CCCCC3)cc2)n1 | -14 | 1.69 |
| CCCN(Cc1nccn1CCOC)C1Cc2ccccc2C1 | -1 | 0.29 |
| O=C(Cc1cccc(O)c1)N1CCC2(CCC(=O)N(Cc3ccccc3)C2)CC1 | -6 | 0.98 |
| N=C1N=C2c3ccccc3CN2Cc2ccccc21 | -7 | 0.86 |
| Cn1ccc(C2CCN(C(=O)[C@@H]3CC=CCC3)CC2)n1 | -11 | 1.37 |
| CC(C)N1C[C@@H](C(=O)NCCOCc2ccc(Cl)cc2)CC1=O | -1 | 0.2 |
| CC(C)N(C)C(=O)[C@H](C)S(=O)(=O)CC1CCCCC1 | -15 | 1.99 |
| CC[C@H](O)CNc1nc(CCc2ccccc2)nc2c1cnn2C | -5 | 0.93 |
| O=C(N[C@@H](Cn1cccn1)c1ccccc1)c1cnccn1 | 4 | -0.76 |
| C[C@H](NC(=O)CC(C)(C)C)c1ccncc1 | -1 | 0.2 |
| CCN1CC2(CCN(Cc3nccn3CC)CC2)C[C@@H](c2ccccc2)C1=O | -17 | 1.55 |
| CC(C)(CN1CCCCCC1)NC(=O)C[C@H]1CC1(F)F | -7 | 1.22 |
| Cc1nnsc1C(=O)N1CCN(CC2CC2)[C@@H]2CS(=O)(=O)C[C@@H]21 | -4 | 0.86 |
| CC(NCC1(O)CCCc2ccccc21)c1cnn(C(C)C)c1 (centres undefined) | -18 | 2.74 |
| O=C(NCC1(N2CCCC2)CCCC1)c1ccc(O)cc1F | 1 | -0.18 |
| Cc1c(Cl)cccc1NC(=O)[C@@H]1CC(=O)N=C(N2CCCCC2)N1 | -1 | 0.12 |
